Data as given in patent publication US20240148892A1 (DUALITY BIOLOGICS SUZHOU, published 2024).

Assays:
[1] = target: T1, Human B7-H7, His Tag (human, UniProt Q9UM44 23-344); experiment: ELISA, B7 family protein immobilized on plate, serially diluted antibody-drug conjugate
T1 construct: Bought protein; also called human B7-H7 protein; ACRO B77-H52H5; not shown: His tag
T1 sequence (looked up): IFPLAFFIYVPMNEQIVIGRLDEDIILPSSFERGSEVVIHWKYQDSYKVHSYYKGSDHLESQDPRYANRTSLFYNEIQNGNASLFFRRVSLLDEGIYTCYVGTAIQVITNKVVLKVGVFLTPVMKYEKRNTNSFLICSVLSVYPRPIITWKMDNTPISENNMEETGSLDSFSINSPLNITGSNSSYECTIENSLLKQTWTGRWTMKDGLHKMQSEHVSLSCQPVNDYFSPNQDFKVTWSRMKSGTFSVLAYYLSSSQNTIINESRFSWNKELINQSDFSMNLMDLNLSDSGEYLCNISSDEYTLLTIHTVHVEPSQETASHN
Method: (§1) Human PD-Ll protein (see the table above), human B7-H2 protein, human B7-H3 protein, human B7-H4 protein, human B7-H5 protein, human B7-H6 protein, human B7-1 protein, human B7-2 protein, human PD-L2 protein, human B7-H7 protein, and human BTNL2 protein were separately immobilized on 96-well plates by incubation at 4° C. overnight. The 96-well plates were then blocked by incubation with 1% BSA in PBS at 37° C. for 1 h. After blocking, the 96-well plates were washed 3 times with PBST (PBS containing 0.05% Tween 20). […] After incubation, the 96-well plates were washed 3 times with PBST, incubated with a secondary antibody (see the table above) in binding buffer at 37° C. for 1 h, and then washed again. TMB was added for color development, and the reaction was stopped by 1 M H₂SO₄.

[2] = target: T2, Human PD-L2, His Tag (confirmed by SPR) (human, UniProt Q9BQ51 20-219); experiment: as above
T2 construct: Bought protein; also called human PD-L2 protein; ACRO PD2-H5220; not shown: His tag
T2 sequence (looked up): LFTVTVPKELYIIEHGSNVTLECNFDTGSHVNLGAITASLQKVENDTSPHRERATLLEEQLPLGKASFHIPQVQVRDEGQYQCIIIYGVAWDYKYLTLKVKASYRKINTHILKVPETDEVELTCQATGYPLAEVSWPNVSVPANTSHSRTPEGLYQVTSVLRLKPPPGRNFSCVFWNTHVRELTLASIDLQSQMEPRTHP
Method: as §1

[3] = target: T3, Human B7-H6 (human, UniProt Q68D85 25-262); experiment: as above
T3 construct: Bought protein; also called human B7-H6 protein; ACRO B76-H52H8
T3 sequence (looked up): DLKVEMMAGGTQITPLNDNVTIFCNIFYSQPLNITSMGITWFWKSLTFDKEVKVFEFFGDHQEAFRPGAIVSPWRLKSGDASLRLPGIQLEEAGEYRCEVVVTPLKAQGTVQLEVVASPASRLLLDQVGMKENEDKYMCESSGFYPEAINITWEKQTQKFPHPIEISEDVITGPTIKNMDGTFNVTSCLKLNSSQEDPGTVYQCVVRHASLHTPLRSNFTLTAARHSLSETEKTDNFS
Method: as §1

[4] = target: T4, Human B7-H5, His Tag (human, UniProt Q9H7M9 33-194); experiment: as above
T4 construct: Bought protein; also called human B7-H5 protein; ACRO B75-H52H0; not shown: His tag
T4 sequence (looked up): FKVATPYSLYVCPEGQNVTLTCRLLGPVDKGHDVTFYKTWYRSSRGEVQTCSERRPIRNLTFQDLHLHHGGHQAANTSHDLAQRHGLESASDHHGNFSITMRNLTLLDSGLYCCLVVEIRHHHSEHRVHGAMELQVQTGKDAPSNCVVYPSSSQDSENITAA
Method: as §1

[5] = target: T5, Human B7-2 protein, His Tag (human, UniProt P42081 24-247); experiment: as above
T5 construct: Bought protein; also called ACRO CD6-H5223; not shown: His tag
T5 sequence (looked up): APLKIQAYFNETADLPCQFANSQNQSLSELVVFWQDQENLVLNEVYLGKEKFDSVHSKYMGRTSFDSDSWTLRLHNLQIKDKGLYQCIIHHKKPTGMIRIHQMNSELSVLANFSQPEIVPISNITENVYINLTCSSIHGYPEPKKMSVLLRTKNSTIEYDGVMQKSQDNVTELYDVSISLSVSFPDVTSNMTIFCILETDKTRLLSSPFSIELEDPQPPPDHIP
Method: as §1

[6] = target: T6, Human B7-H4 protein, His Tag (human, UniProt Q7Z7D3 29-258); experiment: as above
T6 construct: Bought protein; also called ACRO B74-H5222; not shown: His tag
T6 sequence (looked up): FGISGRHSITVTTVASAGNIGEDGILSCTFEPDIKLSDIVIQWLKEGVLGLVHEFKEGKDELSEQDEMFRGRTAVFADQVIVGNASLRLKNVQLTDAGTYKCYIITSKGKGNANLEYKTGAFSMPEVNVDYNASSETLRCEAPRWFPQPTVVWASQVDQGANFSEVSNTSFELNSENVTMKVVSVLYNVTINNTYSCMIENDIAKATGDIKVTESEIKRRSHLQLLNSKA
Method: as §1

[7] = target: T7, Human B7-H2, His Tag (human, UniProt O75144 19-258); experiment: as above
T7 construct: Bought protein; also called human B7-H2 protein; ACRO B72-H5221; not shown: His tag
T7 sequence (looked up): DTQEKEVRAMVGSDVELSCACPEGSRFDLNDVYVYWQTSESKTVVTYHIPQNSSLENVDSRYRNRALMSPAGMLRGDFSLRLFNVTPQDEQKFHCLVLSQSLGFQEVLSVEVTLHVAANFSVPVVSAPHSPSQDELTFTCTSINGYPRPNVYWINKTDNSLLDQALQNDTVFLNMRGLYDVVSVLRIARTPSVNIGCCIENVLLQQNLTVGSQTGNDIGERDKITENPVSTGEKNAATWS
Method: as §1

[8] = target: T8, Human PD-L1, His Tag (human, UniProt Q9NZQ7 part only); experiment: as above
T8 construct: Bought protein; also called human PD-L1 protein; ACRO PD1-H5229; not shown: His tag
T8 sequence (Q9NZQ7 19-238 limits assumed): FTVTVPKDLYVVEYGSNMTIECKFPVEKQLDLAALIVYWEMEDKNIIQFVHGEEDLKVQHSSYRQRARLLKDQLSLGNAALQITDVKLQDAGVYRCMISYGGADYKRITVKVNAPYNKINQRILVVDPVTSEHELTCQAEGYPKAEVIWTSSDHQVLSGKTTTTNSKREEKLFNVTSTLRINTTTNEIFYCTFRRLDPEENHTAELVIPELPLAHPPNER
Method: as §1

[9] = target: T9, Human B7-1 protein, His Tag (human, UniProt P33681 35-242); experiment: as above
T9 construct: Bought protein; also called ACRO B71-H5228; not shown: His tag
T9 sequence (looked up): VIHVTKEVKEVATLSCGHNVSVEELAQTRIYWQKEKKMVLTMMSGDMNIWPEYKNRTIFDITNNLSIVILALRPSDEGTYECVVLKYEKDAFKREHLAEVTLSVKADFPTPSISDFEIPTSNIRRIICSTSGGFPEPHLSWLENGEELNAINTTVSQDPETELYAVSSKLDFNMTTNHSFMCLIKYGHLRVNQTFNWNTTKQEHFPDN
Method: as §1

[10] = target: T10, human full-length B7H3 expressed on MCF-7 cells (human, UniProt Q5ZPR3 29-534); experiment: cell-based or functional assay
T10 sequence: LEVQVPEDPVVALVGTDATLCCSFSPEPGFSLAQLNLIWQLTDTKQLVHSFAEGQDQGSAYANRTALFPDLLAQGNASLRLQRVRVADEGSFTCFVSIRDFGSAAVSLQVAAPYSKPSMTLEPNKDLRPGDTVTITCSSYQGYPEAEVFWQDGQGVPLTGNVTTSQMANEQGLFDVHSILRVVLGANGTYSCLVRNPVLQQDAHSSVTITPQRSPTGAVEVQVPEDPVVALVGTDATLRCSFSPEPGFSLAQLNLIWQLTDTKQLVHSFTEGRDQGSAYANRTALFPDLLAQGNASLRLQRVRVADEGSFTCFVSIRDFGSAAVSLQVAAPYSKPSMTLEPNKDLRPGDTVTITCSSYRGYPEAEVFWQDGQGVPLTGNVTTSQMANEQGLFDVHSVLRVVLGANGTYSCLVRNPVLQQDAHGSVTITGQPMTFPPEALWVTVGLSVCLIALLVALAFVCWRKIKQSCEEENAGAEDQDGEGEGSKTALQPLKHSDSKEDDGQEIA

B1: antibody-drug conjugate WBP301088-X2 (DAR6) (other)
heavy: QVQLQESGPGLVKPSQTLSLTCTVTDYSITGDYAWNWIRQHPGKGLEWIGYISYSGSTSYNPSLQSRVTISRDTSKNQFSLKLSSVTAADTAVYFCARSLGRRWYFVVWGQGTTVTVSSASTKGPSVFPLAPSSKSTSGGTAALGCLVKDYFPEPVTVSWNSGALTSGVHTFPAVLQSSGLYSLSSVVTVPSSSLGTQTYICNVNHKPSNTKVDKRV[not shown - human IgG1 Fc with changes]
light: DIVMTQSPDSLAVSLGERATINCKSSQSLLQSSNQKNYLAWYQQKPGQPPKLLIYFASTRESGVPDRFSGSGSGTDFTLTISSLQAEDVAVYYCQQHYSAPWTFGGGTKVEIKRTVAAPSVFIFPPSDEQLKSGTASVVCLLNNFYPREAKVQWKVDNALQSGNSQESVTEQDSKDSTYSLSSTLTLSKADYEKHKVYACEVTHQGLSSPVTKSFNRGEC
modifications: linker-payload X2 conjugated after TCEP reduction of the antibody; drug loading (DAR) 5.68; positions not given
notes: also called Anti-B7H3 ADC WBP301088-X2 (DAR6)
B1: no binding [1]; no binding [2]; no binding [3]. B1: no binding [4]; no binding [5]; no binding [6]. B1: no binding [7]; no binding [8]; no binding [9]. The “IC50 of inhibition of proliferation, A375 melanoma cells (CellTiter-Glo)” value [10] was 165 nM, the “IC50 of inhibition of proliferation, A549 lung cancer cells (CellTiter-Glo)” value [10] was 369 nM and the “IC50 of inhibition of proliferation, CAL-120 breast cancer cells (CellTiter-Glo)” value [10] was 269 nM. For the same binder, the “IC50 of inhibition of proliferation, Calu-6 lung cancer cells (CellTiter-Glo)” value [10] was 52.3 nM, the “IC50 of inhibition of proliferation, HT-29 colorectal cancer cells (CellTiter-Glo)” value [10] was 446 nM and the “IC50 of inhibition of proliferation, MCF-7 breast cancer cells (CellTiter-Glo)” value [10] was 55.5 nM. The “IC50 of inhibition of proliferation, NCI-H358 lung cancer cells (CellTiter-Glo)” value [10] was 11.4 nM, the “IC50 of inhibition of proliferation, PC-3 prostate cancer cells (CellTiter-Glo)” value [10] was 181 nM and the “IC50 of inhibition of proliferation, U87 MG brain cancer cells (CellTiter-Glo)” value [10] was 86.5 nM.
